Data on 2 molecules can be found in publication PMC10920779, “Targeting P2Y14R protects against necroptosis of intestinal epithelial cells through PKA/CREB/RIPK1 axis in ulcerative colitis” (Nature Communications, 2024).

Holding throughout (assay type): cell-based, human
One test deals with RIPK1. As to the kind of experiment: RIPK1 protein half-life experiment with cycloheximide in HT-29 cells (western blot). The settings on record: within 6 hours of treatment. The procedure:
mRNA in siP2Y14R cells (Fig.#3 c-d.). Besides, UDPG treatment promoted the transcript of Ripk1, […]
Tunel staining and primer sequence have been included in the method section and Supplementary table 1 of the revised manuscript.
Fig.#3 a. The mRNA level of Ripk1 in siP2Y14R or P2Y14R-OE HT-29 cel ls treated DMSO (Veh), or TSZ was analyzed by RT-PCR. b. The mRNA level of Ripk1 in siP2Y14R or P2Y14R-OE HCT-116 cells treated with Veh or TSZ was analyzed by RT-PCR. c. The mRNA level of Ripk1 in siP2Y14R HT-29 cells treated with Veh, TSZ, TSZ+SQ22536, TSZ + H-89 or TSZ + 666-15 was analyzed by RT-PCR. d. The mRNA level of Ripk1 in siP2Y14R HCT-116 cells treated with Veh, TSZ, TSZ+SQ22536, TSZ + H-89 or TSZ + 666-15 was analyzed by RT-PCR. e. The mRNA level of Ripk1 in HT-29 cells treated with Veh, TSZ, UDPG, TSZ+UDPG, TSZ+UDPG+Nec-1 or TSZ+UDPG+GSK’872 was analyzed by RT-PCR. f. The mRNA level of Ripk1 in HCT-116 cells treated with Veh, TSZ, UDPG, TSZ+UDPG, TSZ+UDPG+Nec-1 or TSZ+UDPG+GSK’872 was analyzed by RT-PCR. The data represent the mean ± SD, and One-way analysis of variance […]
of approximately 60-70% of the initial RIPK1 level. Although, a sizable fraction of the initial RIPK1 […]
Fig.#4 The expression of RIPK1 in HT-29 cells 0 hours, 1.5 hours, 3 hours, 6 hours, 12 hours and 24 hours after cycloheximide (CHX) treatment was analyzed by western bolt. […]

Test [1] relates to Ripk1 mRNA. As to the kind of experiment: RT-PCR of Ripk1 mRNA in HCT-116 cells. Conditions: HCT-116 cells, UDPG+TSZ, pre-treatment. The source says:
(§1) Total RNA was extracted from cells or colonic tissues using Trizol (Thermo) under the manufacturer’s instructions. First strand cDNA was synthesized using the PrimeScript RT Reagent Kit (480, Abm). SYBR Green Master Mix reagents (Q331-02, Vazyme) and primer mixtures (Table S1) were used for the real-time PCR. […] The procedure was as described in the kit provided by the manufacturer. Briefly, isolated IECs were fixed by 1% formaldehyde, and fragmented by sonication. CREB was then used for immunoprecipitation. After washing and reverse-crosslinking, the precipitated DNA was amplified by primers and quantified by the qPCR. Primer sequences can be found in Supplementary Table 1.

For test [2], the system named is CREB binding to Ripk1 promoter. As to the kind of experiment: ChIP-qPCR with anti-CREB on Ripk1 gene promoter in HT-29 cells. Conditions: UDPG+TSZ, pre-treatment.
Source text: as §1
Background: In qPCR the cycle at which signal appears reflects the starting amount.

For another test, the system named is HT-29 cells. As to the kind of experiment: TSZ-induced necroptosis in HT-29 cells (CCK8 viability, PI/Hoechst, H&E staining). Conditions: P2Y14R-overexpression HT-29 cells, 1h pre-treatment, TSZ 8 h. The procedure:
(§2) Necroptosis was induced by pretreatment with TNF‐α (20 ng·mL^−1) plus z‐VAD‐fmk (20 μM) and Smac mimetic (BV6, 2 μM) for 8 h, then stained cells with hematoxylin/eosin. For PI/Hoechst staining, cells were stained with PI and Hoechst for 20 min, then photographed with a fluorescence microscope and at least 300 cells were counted. The ratio of PI positive cells (%) = (PI positive cells) / (Hoechst positive cells) × 100%. For cell viability assay, CCK8 was added to the well and incubated for 1 − 2 h and then OD450 was measured using a multi-mode microplate reader (Cytation5, BioTek).

The test system of test [3] is PKA and CREB phosphorylation. As to the kind of experiment: Immunoblotting of p-PKA and p-CREB in HT-29 cells. The settings on record: UDPG+TSZ. The procedure: (§3) Tissues and cells were lysed using RIPA lysis buffer (Beyotime Biotechnology) containing protease and phosphatase inhibitor, homogenated, and centrifuged. The protein concentration was determined by BCA protein assay (Beyotime Biotechnology). Equal concentrations of proteins were separated in a 10% SDS-PAGE and transferred to PVDF membrane. […] Densitometry was quantified using ImageJ software.
For orientation: Immunoblotting shows a protein as a band on a membrane.

The test system of test [4] is Ripk1 mRNA. As to the kind of experiment: RT-PCR of Ripk1 mRNA in HT-29 cells. Conditions: HT-29 cells, UDPG+TSZ, pre-treatment.
Source text: as §1

In test [5] the test system is PKA and CREB phosphorylation. As to the kind of experiment: Immunoblotting of p-PKA and p-CREB in HCT-116 cells. Conditions: UDPG+TSZ. The method, then:
as §3

The next test deals with HCT-116 cells. As to the kind of experiment: TSZ-induced necroptosis in HCT-116 cells (PI/Hoechst staining). Conditions: P2Y14R-overexpression HCT-116 cells, pre-treated. The method, then:
as §2

As to `C[C@@H]1C[C@@H]([C@H](O)CC2CC(=O)NC(=O)C2)C(=O)[C@@H](C)C1` [cycloheximide], the “Decrease of the initial RIPK1 level” value in the test on RIPK1 was 60-70%.

Consider `CC(C)S(=O)(=O)c1ccc2nccc(Nc3ccc4scnc4c3)c2c1` [GSK’872], for which the “Ripk1 transcript (mRNA)” value with Ripk1 mRNA [1] and in the test with Ripk1 mRNA [4] was “showed no effect” throughout. In addition, the “Decrease of binding between CREB and Ripk1 promoter (ChIP)” value in test [2] is “did not affect this process”. In addition, the TSZ-stimulated necroptosis entry is reported as “alleviated TSZ stimulated IECs necroptosis” in the test with HT-29 cells and “alleviated this phenomenon” in the test with HCT-116 cells. Moreover, the “Phosphorylation level of PKA/CREB pathway” value in test [3] and in test [5] was “did not affect the phosphorylation level of PKA/CREB pathway” throughout.
